# ChEMBL document CHEMBL5634115, “Exploring novel anticancer pyrazole benzenesulfonamides featuring tail approach strategy as carbonic anhydrase inhibitors” (Eur J Med Chem, 2023)
# Columns and labels:
# Assay in all cases: cells
# [1] = test system: EKVX; type: functional; settings: Homo sapiens, time 48 hrs
# [2] = test system: ACHN; type: functional; settings: Homo sapiens, time 48 hrs
# [3] = test system: SK-MEL-5; settings: Homo sapiens, SK-MEL-5, 48 h, read-out: LC50
# [4] = test system: SK-MEL-5; type: functional; settings: Homo sapiens, time 48 hrs
# [5] = test system: K562; settings: Homo sapiens, K562, 48 h
# [6] = test system: TK-10; type: functional; settings: Homo sapiens, time 48 hrs
# [7] = test system: DU-145; type: functional; settings: Homo sapiens, time 48 hrs
# [8] = test system: OVCAR-5; type: functional; settings: Homo sapiens, time 48 hrs
# [9] = test system: RPMI-8226; type: functional; settings: Homo sapiens, time 48 hrs
# [10] = test system: SK-MEL-28; type: functional; settings: Homo sapiens, time 48 hrs
# [11] = test system: SW-620; settings: Homo sapiens, SW-620, 48 h, read-out: LC50
# [12] = test system: A498; settings: Homo sapiens, A498, 48 h, read-out: LC50
# [13] = test system: LOX IMVI; type: functional; settings: Homo sapiens, time 48 hrs
# [14] = test system: M14; type: functional; settings: Homo sapiens, time 48 hrs
# [15] = test system: OVCAR-8; type: functional; settings: Homo sapiens, time 48 hrs
# [16] = test system: SK-MEL-2; type: functional; settings: Homo sapiens, time 48 hrs
# [17] = test system: SNB-19; type: functional; settings: Homo sapiens, time 48 hrs
# [18] = test system: NCI-H460; settings: Homo sapiens, NCI-H460, 48 h, read-out: LC50
# [19] = test system: U-251; type: functional; settings: Homo sapiens, time 48 hrs
# [20] = test system: Malme-3M; type: functional; settings: Homo sapiens, time 48 hrs
# [21] = test system: HCC 2998; type: functional; settings: Homo sapiens, time 48 hrs
# [22] = test system: RXF 393; type: functional; settings: Homo sapiens, time 48 hrs
# [23] = test system: A498; type: functional; settings: Homo sapiens, time 48 hrs
# [24] = test system: SK-OV-3; settings: Homo sapiens, SK-OV-3, 48 h, read-out: LC50
# [25] = test system: SNB-19; type: functional; settings: Homo sapiens, time 48 hrs; remark: listed apart in the source
# [26] = test system: BT-549; type: functional; settings: Homo sapiens, time 48 hrs
# [27] = test system: MOLT-4; type: functional; settings: Homo sapiens, time 48 hrs
# [28] = test system: PC-3; type: functional; settings: Homo sapiens, time 48 hrs
# [29] = test system: MDA-MB-231; type: functional; settings: Homo sapiens, time 48 hrs
# [30] = test system: NCI-H522; type: functional; settings: Homo sapiens, time 48 hrs
# [31] = test system: PC-3; type: functional; settings: Homo sapiens, time 48 hrs; remark: listed apart in the source
# [32] = test system: UO-31; type: functional; settings: Homo sapiens, time 48 hrs
# [33] = test system: CCRF-CEM; settings: Homo sapiens, 48 h, read-out: LC50
# [34] = test system: MDA-MB-468; type: functional; settings: Homo sapiens, time 48 hrs
# [35] = test system: COLO 205; type: functional; settings: Homo sapiens, time 48 hrs
# [36] = test system: CAKI-1; settings: Homo sapiens, CAKI-1, 48 h, read-out: LC50
# [37] = test system: MDA-MB-435; type: functional; settings: Homo sapiens, time 48 hrs
# [38] = test system: MOLT-4; type: functional; settings: Homo sapiens, time 48 hrs; remark: listed apart in the source
# [39] = test system: Hs-578T; type: functional; settings: Homo sapiens, time 48 hrs
# [40] = test system: NCI/ADR-RES; type: functional; settings: Homo sapiens, time 48 hrs
# [41] = test system: M14; type: functional; settings: Homo sapiens, time 48 hrs; remark: listed apart in the source
# [42] = test system: HCT-116; type: functional; settings: Homo sapiens, time 48 hrs
# [43] = test system: SN12C; type: functional; settings: Homo sapiens, time 48 hrs
# [44] = test system: SNB-75; type: functional; settings: Homo sapiens, time 48 hrs
# [45] = test system: Hs-578T; settings: Homo sapiens, 48 h, read-out: LC50
# [46] = test system: SN12C; settings: Homo sapiens, 48 h, read-out: LC50
# [47] = test system: BT-549; settings: Homo sapiens, BT-549, 48 h, read-out: LC50
# [48] = test system: IGROV-1; settings: Homo sapiens, IGROV-1, 48 h, read-out: LC50
# [49] = test system: OVCAR-8; type: functional; settings: Homo sapiens, time 48 hrs; remark: listed apart in the source
# [50] = test system: HL-60(TB); type: functional; settings: Homo sapiens, time 48 hrs
# [51] = test system: SR; settings: Homo sapiens, 48 h, read-out: LC50
# [52] = test system: SW-620; type: functional; settings: Homo sapiens, time 48 hrs
# [53] = test system: NCI/ADR-RES; settings: Homo sapiens, 48 h, read-out: LC50
# [54] = test system: OVCAR-5; type: functional; settings: Homo sapiens, time 48 hrs; remark: listed apart in the source
# [55] = test system: SW-620; type: functional; settings: Homo sapiens, time 48 hrs; remark: listed apart in the source
# [56] = test system: SF-295; type: functional; settings: Homo sapiens, time 48 hrs
# [57] = test system: HCT-15; type: functional; settings: Homo sapiens, time 48 hrs
# [58] = test system: NCI-H322M; settings: Homo sapiens, 48 h, read-out: LC50
# [59] = test system: SK-MEL-2; type: functional; settings: Homo sapiens, time 48 hrs; remark: listed apart in the source
# [60] = test system: SK-OV-3; type: functional; settings: Homo sapiens, time 48 hrs
# [61] = test system: BT-549; type: functional; settings: Homo sapiens, time 48 hrs; remark: listed apart in the source
# [62] = test system: HCC 2998; type: functional; settings: Homo sapiens, time 48 hrs; remark: listed apart in the source
# [63] = test system: U-251; type: functional; settings: Homo sapiens, time 48 hrs; remark: listed apart in the source
# [64] = test system: UO-31; settings: Homo sapiens, UO-31, 48 h, read-out: LC50
# [65] = test system: CAKI-1; type: functional; settings: Homo sapiens, time 48 hrs
# [66] = test system: TK-10; settings: Homo sapiens, TK-10, 48 h, read-out: LC50
compound,measurement,setting,value
NS(=O)(=O)c1ccc(-n2cc(/C=N/Nc3ccc(C(=O)O)cc3)c(-c3ccccc3)n2)cc1,GI50,[1],3.62 µM
same,GI50,[2],3.66 µM
same,CC50,[3],8.49 µM
same,GI50,[4],1.96 µM
same,TGI,[5],> 100 µM
same,GI50,[6],18.5 µM
same,GI50,[7],3.25 µM
same,GI50,[8],4.12 µM
same,GI50,[9],3.24 µM
same,TGI,[10],17.3 µM
same,CC50,[11],68.4 µM
same,CC50,[12],> 100 µM
same,TGI,[13],3.04 µM
same,GI50,[14],2.14 µM
same,GI50,[15],4.61 µM
same,GI50,[16],3.06 µM
same,TGI,[17],18.8 µM
same,CC50,[18],35 µM
same,TGI,[19],20.6 µM
same,TGI,[20],16.2 µM
same,TGI,[21],4.53 µM
same,TGI,[22],4.49 µM
same,GI50,[23],15.3 µM
same,CC50,[24],> 100 µM
same,GI50,[25],4.23 µM
same,TGI,[26],23.6 µM
same,GI50,[27],2.5 µM
same,TGI,[28],47.5 µM
same,GI50,[29],3.2 µM
same,GI50,[30],2 µM
same,GI50,[31],3.49 µM
same,GI50,[32],3.03 µM
same,CC50,[33],> 100 µM
same,TGI,[34],6.5 µM
same,TGI,[35],43.1 µM
same,CC50,[36],> 100 µM
same,TGI,[37],5.05 µM
same,TGI,[38],6.41 µM
same,GI50,[39],2.68 µM
same,TGI,[40],6.34 µM
same,TGI,[41],4.96 µM
same,TGI,[42],10.5 µM
same,GI50,[43],16.1 µM
same,TGI,[44],27.4 µM
same,CC50,[45],> 100 µM
same,CC50,[46],> 100 µM
same,CC50,[47],73.8 µM
same,CC50,[48],79.4 µM
same,TGI,[49],56.1 µM
same,TGI,[50],5.44 µM
same,CC50,[51],> 100 µM
same,TGI,[52],10.7 µM
same,CC50,[53],> 100 µM
same,TGI,[54],18 µM
same,GI50,[55],3.2 µM
same,GI50,[56],3.37 µM
same,TGI,[57],3.82 µM
same,CC50,[58],> 100 µM
same,TGI,[59],11.8 µM
same,GI50,[60],12.6 µM
same,GI50,[61],6.39 µM
same,GI50,[62],2.09 µM
same,GI50,[63],3.55 µM
same,CC50,[64],> 100 µM
same,TGI,[65],11.9 µM
same,CC50,[66],> 100 µM
CCOC(=O)c1ccc(N/N=C/c2cn(-c3ccc(S(N)(=O)=O)cc3)nc2-c2ccccc2)cc1,GI50,[1],2.75 µM
same,GI50,[2],2.77 µM
same,CC50,[3],5.5 µM
same,GI50,[4],1.64 µM
same,TGI,[5],6.39 µM
same,GI50,[6],6.21 µM
same,GI50,[7],2.77 µM
same,GI50,[8],1.88 µM
same,GI50,[9],2.64 µM
same,TGI,[10],8.37 µM
same,CC50,[11],> 100 µM
same,CC50,[12],> 100 µM
same,TGI,[13],2.95 µM
same,GI50,[14],2 µM
same,GI50,[15],3.23 µM
same,GI50,[16],2.47 µM
same,TGI,[17],19 µM
same,CC50,[18],54.8 µM
same,TGI,[19],9.9 µM
same,TGI,[20],4.69 µM
same,TGI,[21],3.58 µM
same,TGI,[22],3.67 µM
same,GI50,[23],11.8 µM
same,CC50,[24],> 100 µM
same,GI50,[25],3.35 µM
same,TGI,[26],12.6 µM
same,GI50,[27],1.71 µM
same,TGI,[28],20.8 µM
same,GI50,[29],2.09 µM
same,GI50,[30],2.01 µM
same,GI50,[31],2.92 µM
same,GI50,[32],2.65 µM
same,CC50,[33],> 100 µM
same,TGI,[34],3.84 µM
same,TGI,[35],10.7 µM
same,CC50,[36],> 100 µM
same,TGI,[37],4.38 µM
same,TGI,[38],4.18 µM
same,GI50,[39],2.19 µM
same,TGI,[40],5.15 µM
same,TGI,[41],4.79 µM
same,TGI,[42],6.75 µM
same,GI50,[43],4.68 µM
same,TGI,[44],6.88 µM
same,CC50,[45],> 100 µM
same,CC50,[46],> 100 µM
same,CC50,[47],54.2 µM
same,CC50,[48],> 100 µM
same,TGI,[49],15.7 µM
same,TGI,[50],4.82 µM
same,CC50,[51],> 100 µM
same,TGI,[52],6.8 µM
same,CC50,[53],> 100 µM
same,TGI,[54],5.14 µM
same,GI50,[55],2.52 µM
same,GI50,[56],2.15 µM
same,TGI,[57],3.28 µM
same,CC50,[58],> 100 µM
same,TGI,[59],7.11 µM
same,GI50,[60],4.15 µM
same,GI50,[61],3.45 µM
same,GI50,[62],1.83 µM
same,GI50,[63],2.84 µM
same,CC50,[64],> 100 µM
same,TGI,[65],8.34 µM
same,CC50,[66],> 100 µM
